Experimental findings from the BET-seq Pho4 binding data (Le et al. 2018) are described below.

The other results are listed elsewhere or left out. Values were computed here from the reads of four pooled replicates and scatter widely.

This assay deals with T1, Pho4 (S. cerevisiae) (UniProt P07270).
T1 sequence: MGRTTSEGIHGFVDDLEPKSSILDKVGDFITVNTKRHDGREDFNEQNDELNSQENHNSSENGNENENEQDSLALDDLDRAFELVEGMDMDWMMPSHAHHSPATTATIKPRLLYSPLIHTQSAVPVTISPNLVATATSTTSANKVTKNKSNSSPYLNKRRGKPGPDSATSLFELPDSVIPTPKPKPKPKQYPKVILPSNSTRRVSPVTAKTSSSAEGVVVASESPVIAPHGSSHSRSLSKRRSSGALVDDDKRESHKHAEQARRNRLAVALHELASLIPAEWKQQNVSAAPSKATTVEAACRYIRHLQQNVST
The assay can be described thus: relative binding free energy (BET-seq); higher = weaker binding. The note with it: reference: library average.
As for GCGTACACGTGTTGGA, the “relative binding free energy” value is 0.16 kcal/mol. AAATACACGTGATTGG: the “relative binding free energy” value was found to be 0.15 kcal/mol. Consider AGGATCACGTGGGATG, for which the “relative binding free energy” value is 0.05 kcal/mol. On to CGTAACACGTGGGTGC, for which the “relative binding free energy” value is -0.12 kcal/mol. Under TGGCGCACGTGAGGGC stands 0.2 kcal/mol; under GGAAGCACGTGAGTGC, 0.19 kcal/mol. The figure for CTTTTCACGTGGCTTG is 0.18 kcal/mol. Turning to ATTGTCACGTGTTACT, the “relative binding free energy” value came to 0.05 kcal/mol. The figure for GAGTACACGTGTTGTA is 0.11 kcal/mol; for AGGTCCACGTGTATGT it is -0.07 kcal/mol; for CGGATCACGTGTTGTT it is 0.22 kcal/mol. For the sequence TTGTGCACGTGATTCG, the “relative binding free energy” value worked out at 0.04 kcal/mol. Turning to GGTGACACGTGGAAGT, the “relative binding free energy” value amounted to 0.12 kcal/mol.

For TAAATCACGTGATGTA, the “relative binding free energy” value turned out to be 0.22 kcal/mol.

Consider ACGGACACGTGGGGGC, for which the “relative binding free energy” value is -0.1 kcal/mol. For AGGATCACGTGTGTGG, the “relative binding free energy” value turned out to be 0.14 kcal/mol. Regarding TGGAACACGTGTGGTC, the “relative binding free energy” value was found to be 0.11 kcal/mol. Under GTGGGCACGTGGGGTT stands -0.1 kcal/mol; under GTATTCACGTGAGATG, 0.36 kcal/mol; under CCTGTCACGTGCGGGT, 0.05 kcal/mol. The figure for TGTGACACGTGTTGCG is 0 kcal/mol; for GTTTGCACGTGACTTG it is 0.06 kcal/mol; for TGGGGCACGTGGCACG it is -0.19 kcal/mol. Under TGAGTCACGTGATGAT stands 0.39 kcal/mol; under GGTGGCACGTGGACCG, -0.16 kcal/mol. GTTGACACGTGGCTGG: the “relative binding free energy” value worked out at 0.09 kcal/mol.

In the case of GTTGACACGTGGGTAG, the “relative binding free energy” value is -0.05 kcal/mol. Consider TGGAACACGTGTTGTC, for which the “relative binding free energy” value was -0.06 kcal/mol. Under CGGGGCACGTGGTCAG stands -0.26 kcal/mol; under AAGGTCACGTGGAATA, 0.25 kcal/mol. Under GCAGGCACGTGGGTCT stands -0.22 kcal/mol; under TAGGACACGTGTACTT, 0.05 kcal/mol; under TGGAGCACGTGTTGGA, -0.04 kcal/mol. In the case of GATGGCACGTGTTTGC, the “relative binding free energy” value is -0.1 kcal/mol. For the sequence GTCATCACGTGGTGTT, the “relative binding free energy” value came to 0.04 kcal/mol.

As for AGCAGCACGTGTGTTA, the “relative binding free energy” value was -0.03 kcal/mol. The figure for TGAATCACGTGTGCAG is 0.13 kcal/mol; for GAAGTCACGTGGAGGC it is 0.15 kcal/mol; for TTTGTCACGTGCTAAT it is 0.21 kcal/mol. On to TCTCACACGTGTTGTG, for which the “relative binding free energy” value was determined as 0.11 kcal/mol. GTGAGCACGTGTATTT: the “relative binding free energy” value was -0.06 kcal/mol. As for ATTGGCACGTGGAATA, the “relative binding free energy” value was -0.16 kcal/mol. Under TGGGGCACGTGGTACA stands -0.32 kcal/mol; under ATGGGCACGTGAAGAA, 0.23 kcal/mol. Under ATGTACACGTGATCTT stands 0.09 kcal/mol; under GCAGTCACGTGGGCTT, 0.01 kcal/mol; under AGTCTCACGTGGTGGT, 0.05 kcal/mol.

Take GGTTCCACGTGTTGTT: the “relative binding free energy” value came out at 0.23 kcal/mol. The figure for AAATTCACGTGTATGT is 0.33 kcal/mol; for GATTACACGTGGTTGA it is 0.07 kcal/mol. Under ATTAGCACGTGCTGTG stands -0.09 kcal/mol. For AAGACCACGTGGTGTT, the “relative binding free energy” value is -0.05 kcal/mol. The figure for TCTATCACGTGATTTT is 0.29 kcal/mol; for AATTACACGTGTATAT it is 0.13 kcal/mol; for ACTGTCACGTGAATGG it is 0.31 kcal/mol. The figure for TGTTCCACGTGGGTGT is -0.05 kcal/mol. Under TCTGGCACGTGTTCGG stands -0.11 kcal/mol; under TTGTACACGTGGGTCA, -0.1 kcal/mol. For ATATGCACGTGAATTG, the “relative binding free energy” value was determined as 0.06 kcal/mol.

Regarding ATCGTCACGTGCTGGT, the “relative binding free energy” value was -0.05 kcal/mol.

Turning to TTTTACACGTGTTAAG, the “relative binding free energy” value is 0.19 kcal/mol. As to GATAACACGTGTTGGG, the “relative binding free energy” value came out at 0.11 kcal/mol. The figure for TGTATCACGTGGAAAG is 0.26 kcal/mol; for GAGGACACGTGATGTG it is 0.09 kcal/mol; for TGATACACGTGGTAGT it is -0.11 kcal/mol.

With TATGACACGTGGAATT, the “relative binding free energy” value was 0.25 kcal/mol. Under GATATCACGTGGAAGT stands 0.35 kcal/mol. With GGTTACACGTGGAGAA, the “relative binding free energy” value amounted to 0.18 kcal/mol. The figure for CGTGGCACGTGGCAGG is -0.1 kcal/mol. Take GTAGGCACGTGTAGCT: the “relative binding free energy” value turned out to be 0 kcal/mol. Take AGAAACACGTGTAGGG: the “relative binding free energy” value is -0.04 kcal/mol.

TGTTACACGTGATGCT: the “relative binding free energy” value is 0.22 kcal/mol. Under TGGGGCACGTGCATAT stands -0.28 kcal/mol.
